According to PubChem BioAssay AID504332 (National Center for Advancing Translational Sciences (NCATS), 2011):
In all, about 350,000 compounds went through this assay and about 31,000 (8.9%) were called active. Inconclusive means that the source gave no clear call. Such entries were picked first, then a sample of the others. Calls follow the shape of the dose curve; as a rule, active = well fitted inhibition curve with a large enough effect; inconclusive = small, poorly fitted or top-dose-only effect; inactive = no such curve, though single readings can be large or run the other way. A potency beside an inconclusive call is a rough fit, not a confirmed value.

target: Histone-lysine N-methyltransferase EHMT2 (Homo sapiens) (UniProt Q96KQ7); assay: qHTS Assay for Inhibitors of Histone Lysine Methyltransferase G9a; details: G9a H3K9 monomethylation, AlphaScreen, 2 h; activity, negative = inhibition: at 59 µM (top of the series) unless noted; also: nearly all actives have a fitted effect of over 75% in size
UniProt Q96KQ7, sequence (Q96KQ7 whole entry, looked up): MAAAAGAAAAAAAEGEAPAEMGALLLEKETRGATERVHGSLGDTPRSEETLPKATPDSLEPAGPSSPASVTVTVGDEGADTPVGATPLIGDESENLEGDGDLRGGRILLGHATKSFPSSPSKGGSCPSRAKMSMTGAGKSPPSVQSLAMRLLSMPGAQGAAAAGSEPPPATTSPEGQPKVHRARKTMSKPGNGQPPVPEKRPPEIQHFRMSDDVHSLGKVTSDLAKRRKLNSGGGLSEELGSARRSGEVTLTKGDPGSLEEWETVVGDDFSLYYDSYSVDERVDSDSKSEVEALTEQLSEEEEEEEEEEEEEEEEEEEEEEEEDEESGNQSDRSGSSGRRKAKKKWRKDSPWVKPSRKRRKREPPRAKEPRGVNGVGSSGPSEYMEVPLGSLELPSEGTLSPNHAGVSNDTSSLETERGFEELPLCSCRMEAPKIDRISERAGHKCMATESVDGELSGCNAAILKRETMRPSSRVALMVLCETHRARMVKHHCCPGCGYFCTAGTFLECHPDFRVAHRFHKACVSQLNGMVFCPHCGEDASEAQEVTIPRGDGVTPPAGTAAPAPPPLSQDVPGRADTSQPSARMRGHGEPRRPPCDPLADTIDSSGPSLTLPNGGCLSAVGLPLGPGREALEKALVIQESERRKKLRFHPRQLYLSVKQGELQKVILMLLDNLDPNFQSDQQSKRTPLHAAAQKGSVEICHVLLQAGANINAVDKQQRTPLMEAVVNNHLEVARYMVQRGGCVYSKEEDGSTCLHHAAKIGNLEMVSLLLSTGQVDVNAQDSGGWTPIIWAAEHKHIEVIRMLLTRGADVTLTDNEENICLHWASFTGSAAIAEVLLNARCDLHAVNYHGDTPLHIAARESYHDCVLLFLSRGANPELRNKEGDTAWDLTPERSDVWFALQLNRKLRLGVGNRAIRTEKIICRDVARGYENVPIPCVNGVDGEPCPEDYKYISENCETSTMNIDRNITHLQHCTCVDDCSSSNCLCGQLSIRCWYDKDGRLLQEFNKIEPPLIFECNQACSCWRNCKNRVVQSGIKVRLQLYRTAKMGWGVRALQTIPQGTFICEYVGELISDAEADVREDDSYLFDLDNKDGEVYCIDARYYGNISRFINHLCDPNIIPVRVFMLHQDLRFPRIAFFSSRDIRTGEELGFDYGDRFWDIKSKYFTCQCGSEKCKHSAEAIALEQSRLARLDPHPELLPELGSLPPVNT
Method in brief: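 Readings reflect AlphaScreen signal from monomethyl-H3K9 antibody detection. HMT at 20 nM; substrate b-H3K9 500 nM; cofactor SAM 20 uM; 2 h RT reaction; compounds tested as titrations in qHTS with 15 min preincubation.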
% is scaled to controls: 0 for no effect and ±100 for the full control effect; potency is read from the fitted curve at half-maximal effect; tags tell the direction and shape of the fitted curve.

SMILES	Potency	activity, negative = inhibition
COc1cc(NC(=O)N[C@@H](Cc2ccccc2)C(=O)O)cc(OC)c1	inactive	–
O=C(CC(C(=O)N1CCc2ccccc21)n1ccnc1)N1CCc2ccccc2C1 (stereo unspecified)	inconclusive: 50.1 µM [inhibitor, partial curve, poor fit]	–
COCc1ccc(CN2CCCC(CO)(Cc3cccc(Cl)c3)C2)o1 (stereo unspecified)	inconclusive: 0.398 µM [inhibitor, partial curve, poor fit]	–
COc1cc(C)c(N)cc1C(C)C	–	inconclusive: -71% [inhibitor]
CCN(CC)c1ccc(/C=N/NC(=O)c2ccc3c(c2)OCCO3)cc1	inconclusive: 22.4 µM [inhibitor, partial curve, poor fit]	–
CCOC(=O)C1(Cc2ccccc2Cl)CCN(C(=O)c2cnccn2)CC1	inactive	–
O=C(COC(=O)Cn1nnc2ccccc21)NC1CCCC1	inactive	–
CC(C(=O)NC1C(=O)N2C(C(=O)O)=C(CSc3nnnn3C)CSC12)n1cc(Cl)cn1 (stereo unspecified)	inconclusive: 44.7 µM [inhibitor, partial curve, poor fit]	–
Cc1c(-c2ccccc2)n[nH]c1C(=O)NN	active: 39.8 µM	–
COc1ccc(C(=O)NCCn2cc(SCc3c(F)cccc3Cl)c3ccccc32)cc1	inactive	–
O=C1CCCC2=C1C(c1ccc(O)c(Br)c1)C1=C(CCCC1=O)N2c1ccccc1	inconclusive: 50.1 µM [inhibitor, partial curve]	–
Cc1cccc(NC(=O)CNC(=O)c2ccc3nc[nH]c3c2)c1C	inconclusive: 89.1 µM [inhibitor, single point]	–
CCN(CC)CCSc1c(C(C)C)cnc2c1c(=O)n(C)c(=O)n2C	inactive	–
Cc1ccc(C(=O)c2sc3c(c2N)c(=O)[nH]c(=O)n3CCc2ccccc2)cc1	inactive	–
O=C(CN1C(=O)COc2ccc(S(=O)(=O)NC3CCCC3)cc21)NCc1ccc(Cl)cc1	inactive	–
CCOc1ccc(CNC(=O)CSc2nnc(C)c3c(C)n(-c4ccc(Cl)cc4)nc23)cc1	inconclusive: 7.08 µM [inhibitor, single point]	–
COc1cccc(/C=C/C(=O)NCc2cn3cc(Cl)ccc3n2)c1	inactive	–
Cc1ccc(O)c(C(CC(=O)N2CCCC2)c2ccccc2)c1 (stereo unspecified)	inconclusive: 79.4 µM [inhibitor, single point]	–
COc1c(C)cccc1C(=O)NCc1ccc2c(c1)OCO2	inactive	–
CCCCOCCCNC(=O)CC(C)c1ccccc1 (stereo unspecified)	inactive	–
COc1ccc(C2=NN(C(=O)c3ccccc3)C(c3ccc(OC)c(OC)c3)C2)cc1OC (stereo unspecified)	inconclusive: 89.1 µM [inhibitor, single point]	–
